{
  "source": "paper PMC9911399",
  "about": "“Two distinct binding modes provide the RNA-binding protein RbFox with extraordinary sequence specificity”",
  "binders": {"B1": {"name": "CACAUAC (DNA:RNA)", "RNA": "GGGAGACCGGAAUUCAGAUUGUCCCACAUACUUAAAUCCCGUCGUAGCCACCA", "DNA 1": "CAATCTGAATTCCGGTCTCCC", "DNA 2": "TGGTGGCTACGACGGGATT"}, "B2": {"name": "AGAACUA (DNA:RNA)", "RNA": "B1 RNA with C25A, A26G, C27A, U29C, A30U, C31A", "DNA 1": "CAATCTGAATTCCGGTCTCCC", "DNA 2": "TGGTGGCTACGACGGGATT"}, "B3": {"name": "CGGCAAA (DNA:RNA)", "RNA": "B1 RNA with A26G, C27G, A28C, U29A, C31A", "DNA 1": "CAATCTGAATTCCGGTCTCCC", "DNA 2": "TGGTGGCTACGACGGGATT"}, "B4": {"name": "AUUACGC (DNA:RNA)", "RNA": "B1 RNA with C25A, A26U, C27U, U29C, A30G", "DNA 1": "CAATCTGAATTCCGGTCTCCC", "DNA 2": "TGGTGGCTACGACGGGATT"}, "B5": {"name": "UCCGAGA (DNA:RNA)", "RNA": "B1 RNA with C25U, A26C, A28G, U29A, A30G, C31A", "DNA 1": "CAATCTGAATTCCGGTCTCCC", "DNA 2": "TGGTGGCTACGACGGGATT"}, "B6": {"name": "UCAAUAC (DNA:RNA)", "RNA": "B1 RNA with C25U, A26C, C27A", "DNA 1": "CAATCTGAATTCCGGTCTCCC", "DNA 2": "TGGTGGCTACGACGGGATT"}, "B7": {"name": "ACAUUAA (DNA:RNA)", "RNA": "B1 RNA with C25A, A26C, C27A, A28U, C31A", "DNA 1": "CAATCTGAATTCCGGTCTCCC", "DNA 2": "TGGTGGCTACGACGGGATT"}, "B8": {"name": "UUAGUCC (DNA:RNA)", "RNA": "B1 RNA with C25U, A26U, C27A, A28G, A30C", "DNA 1": "CAATCTGAATTCCGGTCTCCC", "DNA 2": "TGGTGGCTACGACGGGATT"}, "B9": {"name": "GGUUAGA (DNA:RNA)", "RNA": "GGGAGACCGGAAUUCAGAUUGUCCGGUUAGAUUAAAUCCCGUCGUAGCCACCA", "DNA 1": "CAATCTGAATTCCGGTCTCCC", "DNA 2": "TGGTGGCTACGACGGGATT"}, "B10": {"name": "CUCGAGG (DNA:RNA)", "RNA": "B1 RNA with A26U, A28G, U29A, A30G, C31G", "DNA 1": "CAATCTGAATTCCGGTCTCCC", "DNA 2": "TGGTGGCTACGACGGGATT"}, "B11": {"name": "UUCCGUG (DNA:RNA)", "RNA": "B1 RNA with C25U, A26U, A28C, U29G, A30U, C31G", "DNA 1": "CAATCTGAATTCCGGTCTCCC", "DNA 2": "TGGTGGCTACGACGGGATT"}, "B12": {"name": "CUUGCAC (DNA:RNA)", "RNA": "B1 RNA with A26U, C27U, A28G, U29C", "DNA 1": "CAATCTGAATTCCGGTCTCCC", "DNA 2": "TGGTGGCTACGACGGGATT"}, "B13": {"name": "GUUUUUG (DNA:RNA)", "RNA": "B9 RNA with G26U, A29U, G30U, A31G", "DNA 1": "CAATCTGAATTCCGGTCTCCC", "DNA 2": "TGGTGGCTACGACGGGATT"}, "B14": {"name": "AGCUUUC (DNA:RNA)", "RNA": "B1 RNA with C25A, A26G, A28U, A30U", "DNA 1": "CAATCTGAATTCCGGTCTCCC", "DNA 2": "TGGTGGCTACGACGGGATT"}, "B15": {"name": "CGAGAAC (DNA:RNA)", "RNA": "B1 RNA with A26G, C27A, A28G, U29A", "DNA 1": "CAATCTGAATTCCGGTCTCCC", "DNA 2": "TGGTGGCTACGACGGGATT"}, "B16": {"name": "GCCCGUG (DNA:RNA)", "RNA": "B1 RNA with C25G, A26C, A28C, U29G, A30U, C31G", "DNA 1": "CAATCTGAATTCCGGTCTCCC", "DNA 2": "TGGTGGCTACGACGGGATT"}, "B17": {"name": "GCGGAUC (DNA:RNA)", "RNA": "B9 RNA with G26C, U27G, U28G, G30U, A31C", "DNA 1": "CAATCTGAATTCCGGTCTCCC", "DNA 2": "TGGTGGCTACGACGGGATT"}, "B18": {"name": "AGGAUCA (DNA:RNA)", "RNA": "B1 RNA with C25A, A26G, C27G, A30C, C31A", "DNA 1": "CAATCTGAATTCCGGTCTCCC", "DNA 2": "TGGTGGCTACGACGGGATT"}, "B19": {"name": "GUCGGGA (DNA:RNA)", "RNA": "B9 RNA with G26U, U27C, U28G, A29G", "DNA 1": "CAATCTGAATTCCGGTCTCCC", "DNA 2": "TGGTGGCTACGACGGGATT"}, "B20": {"name": "UCCAAGA (DNA:RNA)", "RNA": "B9 RNA with G25U, G26C, U27C, U28A", "DNA 1": "CAATCTGAATTCCGGTCTCCC", "DNA 2": "TGGTGGCTACGACGGGATT"}, "B21": {"name": "CCCUGGC (DNA:RNA)", "RNA": "B1 RNA with A26C, A28U, U29G, A30G", "DNA 1": "CAATCTGAATTCCGGTCTCCC", "DNA 2": "TGGTGGCTACGACGGGATT"}, "B22": {"name": "AUAGGCC (DNA:RNA)", "RNA": "B1 RNA with C25A, A26U, C27A, A28G, U29G, A30C", "DNA 1": "CAATCTGAATTCCGGTCTCCC", "DNA 2": "TGGTGGCTACGACGGGATT"}, "B23": {"name": "AUCCUCA (DNA:RNA)", "RNA": "B1 RNA with C25A, A26U, A28C, A30C, C31A", "DNA 1": "CAATCTGAATTCCGGTCTCCC", "DNA 2": "TGGTGGCTACGACGGGATT"}, "B24": {"name": "GCUCUGU (DNA:RNA)", "RNA": "B9 RNA with G26C, U28C, A29U, A31U", "DNA 1": "CAATCTGAATTCCGGTCTCCC", "DNA 2": "TGGTGGCTACGACGGGATT"}, "B25": {"name": "AAGAUCG (DNA:RNA)", "RNA": "B1 RNA with C25A, C27G, A30C, C31G", "DNA 1": "CAATCTGAATTCCGGTCTCCC", "DNA 2": "TGGTGGCTACGACGGGATT"}, "B26": {"name": "GCCCCGU (DNA:RNA)", "RNA": "B9 RNA with G26C, U27C, U28C, A29C, A31U", "DNA 1": "CAATCTGAATTCCGGTCTCCC", "DNA 2": "TGGTGGCTACGACGGGATT"}, "B27": {"name": "GUUGGUU (DNA:RNA)", "RNA": "B9 RNA with G26U, U28G, A29G, G30U, A31U", "DNA 1": "CAATCTGAATTCCGGTCTCCC", "DNA 2": "TGGTGGCTACGACGGGATT"}, "B28": {"name": "CCACGUG (DNA:RNA)", "RNA": "B1 RNA with A26C, C27A, A28C, U29G, A30U, C31G", "DNA 1": "CAATCTGAATTCCGGTCTCCC", "DNA 2": "TGGTGGCTACGACGGGATT"}, "B29": {"name": "GUGCGAC (DNA:RNA)", "RNA": "B1 RNA with C25G, A26U, C27G, A28C, U29G", "DNA 1": "CAATCTGAATTCCGGTCTCCC", "DNA 2": "TGGTGGCTACGACGGGATT"}, "B30": {"name": "AUGCUAA (DNA:RNA)", "RNA": "B1 RNA with C25A, A26U, C27G, A28C, C31A", "DNA 1": "CAATCTGAATTCCGGTCTCCC", "DNA 2": "TGGTGGCTACGACGGGATT"}, "B31": {"name": "CCGUACU (DNA:RNA)", "RNA": "B9 RNA with G25C, G26C, U27G, G30C, A31U", "DNA 1": "CAATCTGAATTCCGGTCTCCC", "DNA 2": "TGGTGGCTACGACGGGATT"}},
  "note": "Positions count from the first letter of the chain named. This is one part of the list.",
  "data": [
    {"biological_target": "T1, RBFOX1 RRM (Homo sapiens, UniProt Q9NWB1 109-208)", "T1 sequence": "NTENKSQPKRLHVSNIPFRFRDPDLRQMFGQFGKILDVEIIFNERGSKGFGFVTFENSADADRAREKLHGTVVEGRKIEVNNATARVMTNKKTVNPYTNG", "assay": "EMSA; HiTS-Eq, 1 nM pool, 10 min; buffer printed only for the single-RNA assays: 10 mM Tris pH 7.5, 150 mM NaCl, 3.4 mM EDTA, 0.001% NP-40, 30 C", "conditions": "tags: His6 N-terminal (pET28a); label: 5' 32P", "outline": "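Purified RbFox RRM (wild type or mutant) was equilibrated for 10 min in 50 µL with 1 nM of a 5′-radiolabelled pool of RNA with 7 randomized nucleotides, its flanks annealed to DNA oligonucleotides, across increasing protein concentrations. Free RNA was separated by 8% native PAGE, excised, reverse-transcribed, PCR-barcoded and sequenced on an Illumina HiSeq 2500. Relative association constants came from read-count changes of each variant against the control reaction, normalised to the cognate motif.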", "values": [
      {"binder": "B1", "binding signal": "0.00055 KA relative to UGCAUGU"},
      {"binder": "B2", "binding signal": "0.00165 KA relative to UGCAUGU"},
      {"binder": "B3", "binding signal": "0.00434 KA relative to UGCAUGU"},
      {"binder": "B4", "binding signal": "0.00592 KA relative to UGCAUGU"},
      {"binder": "B5", "binding signal": "0.00898 KA relative to UGCAUGU"},
      {"binder": "B6", "binding signal": "0.000299 KA relative to UGCAUGU"},
      {"binder": "B7", "binding signal": "0.000265 KA relative to UGCAUGU"},
      {"binder": "B8", "binding signal": "0.011 KA relative to UGCAUGU"},
      {"binder": "B9", "binding signal": "0.0155 KA relative to UGCAUGU"},
      {"binder": "B10", "binding signal": "0.00615 KA relative to UGCAUGU"},
      {"binder": "B11", "binding signal": "0.00966 KA relative to UGCAUGU"},
      {"binder": "B12", "binding signal": "0.0183 KA relative to UGCAUGU"},
      {"binder": "B13", "binding signal": "0.0228 KA relative to UGCAUGU"},
      {"binder": "B14", "binding signal": "0.0108 KA relative to UGCAUGU"},
      {"binder": "B15", "binding signal": "0.00543 KA relative to UGCAUGU"},
      {"binder": "B16", "binding signal": "0.0203 KA relative to UGCAUGU"},
      {"binder": "B17", "binding signal": "0.00958 KA relative to UGCAUGU"},
      {"binder": "B18", "binding signal": "0.0143 KA relative to UGCAUGU"},
      {"binder": "B19", "binding signal": "0.0117 KA relative to UGCAUGU"},
      {"binder": "B20", "binding signal": "0.00589 KA relative to UGCAUGU"},
      {"binder": "B21", "binding signal": "0.011 KA relative to UGCAUGU"},
      {"binder": "B22", "binding signal": "0.0113 KA relative to UGCAUGU"},
      {"binder": "B23", "binding signal": "0.0013 KA relative to UGCAUGU"},
      {"binder": "B24", "binding signal": "0.0217 KA relative to UGCAUGU"},
      {"binder": "B25", "binding signal": "0.00962 KA relative to UGCAUGU"},
      {"binder": "B26", "binding signal": "0.00966 KA relative to UGCAUGU"},
      {"binder": "B27", "binding signal": "0.028 KA relative to UGCAUGU"},
      {"binder": "B28", "binding signal": "0.00523 KA relative to UGCAUGU"},
      {"binder": "B29", "binding signal": "0.00787 KA relative to UGCAUGU"},
      {"binder": "B30", "binding signal": "0.00584 KA relative to UGCAUGU"},
      {"binder": "B31", "binding signal": "0.00471 KA relative to UGCAUGU"}
    ]}
  ]
}
